# The supplement of paper PMC12645437, “Orthogonal IMiD-Degron Pairs Induce Selective Protein Degradation in Cells” (ACS Chemical Biology, 2025)
# Some of the results follow.
# Biological target: no compound (DMSO)
# Assay: log2 fold change of degron read counts, EGFP-low vs EGFP+ sorted cells; higher = lower degron-EGFP level without compound (poor expression or instability)
# Settings: compound: DMSO control; 18 h
# 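Further: jurkat cells carrying a lentiviral library of mutant zinc finger degrons fused to EGFP plus mCherry, mCherry+ cells FACS sorted, degron abundance counted by next-generation sequencing.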
row,Sequence,log2 fold change of degron read counts
1,LVCPICGFMCTQKGNLLRHIKL,0.504
2,FRCDQCGAMFTQKGNLLRHIKL,-0.893
3,FACEICGRGFTQKGNLLRHIKL,-1.13
4,FICEICGAEFTQKGNLLRHIKL,-1.19
5,FICEVCGAPFTQKGNLLRHIKL,-1.75
6,FFCPQCGAPFTQKGNLLRHIKL,-0.962
7,FCCSVCGHFFTQKGNLLRHIKL,0.384
8,FMCNQCGAFFTQKGNLLRHIKL,0.257
9,FFCPICGATFTQKGNLLRHIKL,-0.233
10,FWCNVCGAGFTQKGNLLRHIKL,0.693
11,FICPICGHHFTQKGNLLRHIKL,-0.78
12,FCCNICGAMFTQKGNLLRHIKL,-0.499
13,FICNVCGASFTQKGNLLRHIKL,-1.79
14,FQCEVCGACFTQKGNLLRHIKL,-1.68
15,FQCEQCGAFFTQKGNLLRHIKL,-1.32
16,FDCNQCGRQFTQKGNLLRHIKL,-0.133

row,Sequence,log2 fold change of degron read counts
1,FGCEQCGAAFTQKGNLLRHIKL,-0.601
2,FCCEICGAFFTQKGNLLRHIKL,-0.519
3,FGCDQCGAIFTQKGNLLRHIKL,-0.963
4,LVCPICGFSCTQKGNLLRHIKL,0.666
5,FNCDVCGAKFTQKGNLLRHIKL,-1.47
6,FKCSVCGHNFTQKGNLLRHIKL,-0.273
7,FYCNQCGAPFTQKGNLLRHIKL,0.202
8,FGCNQCGRHFTQKGNLLRHIKL,0.301
9,FKCEVCGAKFTQKGNLLRHIKL,-1.23
10,FRCPQCGAEFTQKGNLLRHIKL,-1.28
11,FCCPICGHGFTQKGNLLRHIKL,-0.395
12,FSCDQCGAHFTQKGNLLRHIKL,-2.07
13,FVCPVCGATFTQKGNLLRHIKL,-1.47
14,LICPICGFACTQKGNLLRHIKL,1.02
15,FNCPICGRNFTQKGNLLRHIKL,-0.557
16,LDCNQCGFLCTQKGNLLRHIKL,1.38
